Data: the supplement of paper PMC3334620
Whole data set: some 33,000 sequences, median “E-score (-0.5 to 0.5)” near -0.011, cut for the highest 2% near 0.28. This is one part of the list.

What follows are sequences tested against T1, Gcr1 (UniProt P07261) (assay: PBM E-score (8-mer binding enrichment) (E-score (-0.5 to 0.5)); higher = stronger / more preferred TF binding; most listed sequences are background and not binding sites). Settings: protein concentration: 100 nM; construct: GST-full length.
T1 sequence: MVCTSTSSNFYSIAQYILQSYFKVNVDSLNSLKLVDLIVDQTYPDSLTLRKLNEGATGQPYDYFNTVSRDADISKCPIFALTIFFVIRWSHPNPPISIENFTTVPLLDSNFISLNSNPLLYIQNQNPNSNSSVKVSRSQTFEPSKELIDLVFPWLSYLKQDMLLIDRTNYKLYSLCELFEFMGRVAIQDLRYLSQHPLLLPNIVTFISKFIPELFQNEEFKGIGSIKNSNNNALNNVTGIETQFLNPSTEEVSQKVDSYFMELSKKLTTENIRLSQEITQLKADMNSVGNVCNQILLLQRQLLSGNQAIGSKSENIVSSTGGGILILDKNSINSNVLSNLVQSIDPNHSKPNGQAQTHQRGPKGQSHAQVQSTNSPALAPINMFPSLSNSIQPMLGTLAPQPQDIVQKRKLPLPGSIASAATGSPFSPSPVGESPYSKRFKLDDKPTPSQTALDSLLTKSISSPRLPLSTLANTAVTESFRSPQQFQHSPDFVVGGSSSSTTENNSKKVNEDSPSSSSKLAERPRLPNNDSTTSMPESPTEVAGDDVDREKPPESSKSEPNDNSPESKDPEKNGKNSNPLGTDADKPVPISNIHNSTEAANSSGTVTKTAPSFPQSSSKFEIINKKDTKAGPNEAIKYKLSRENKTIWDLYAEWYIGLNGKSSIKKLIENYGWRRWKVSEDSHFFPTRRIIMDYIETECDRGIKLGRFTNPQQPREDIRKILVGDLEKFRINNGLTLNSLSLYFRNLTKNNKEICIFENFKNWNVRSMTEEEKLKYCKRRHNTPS
Procedure, shortened: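 E-scores (a modified Wilcoxon-Mann-Whitney statistic) were assigned by the Universal PBM Analysis Suite to every ungapped eight-base word pooled with its reverse complement. The input came from universal all-10-mer Agilent arrays made double-stranded by primer extension and probed with GST-tagged yeast transcription factors at about 100-200 nM. Fluorescent anti-GST detected bound protein, and masliner normalised the scans.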

Row | Sequence | PBM E-score
1 | CATACAAC | 0.0943
2 | TGCTACAA | 0.124
3 | AGCTTCCC | 0.378
4 | AACCACTT | 0.213
5 | CGGTATAG | 0.0846
6 | CATCCTTC | -0.108
7 | TACGCCCA | -0.0827
8 | AAACGGTG | 0.104
9 | AAACAATT | -0.102
10 | CTTAATGC | -0.161
11 | CTAATTAA | 0.0618
12 | GGACGGCC | -0.0796
13 | CACCGGAG | 0.00487
14 | AGGGGAGC | 0.105
15 | ACAAACCC | -0.0318
16 | AACAATAT | -0.00193
17 | GCCATCCC | -0.173
18 | CGTGCTTA | -0.0626
19 | ACTATTCT | -0.205
20 | ACAGACAC | -0.143
21 | GCTCATCA | 0.0219
22 | CCTACATC | -0.135
23 | ACACCGAT | -0.0667
24 | AGTTGACA | 0.0291
25 | ACCGCATA | 0.118

Row | Sequence | PBM E-score
26 | CCGGCGTC | 0.402
27 | CTCGCGTC | 0.061
28 | CAATATAC | 0.103
29 | AGAACGCA | -0.122
30 | TCGATCAA | -0.0338
31 | TGAGCAAA | -0.229
32 | AGAATTGC | -0.0582
33 | AGTGCTAC | 0.0355
34 | CAAGCTGC | 0.149
35 | CCAAGGAC | -0.0288
36 | CAATAACA | -0.0463
37 | CTGTCTGA | 0.0266
38 | ATGTCCGC | -0.076
39 | TCTGTCAA | -0.152
40 | AGGTACAT | -0.0115
41 | CCCTAGGA | -0.137
42 | AATCACGA | 0.0621
43 | CGGTTTCC | 0.102
44 | CAACAGTC | -0.173
45 | CTCGTATC | -0.0392
46 | GAATTATC | -0.16
47 | CCCCATCC | 0.134
48 | CACAAAAC | 0.0927
49 | ATGGTCCA | -0.101
50 | ATAAGGTG | 0.0714

Row | Sequence | PBM E-score
51 | GACATCGC | -0.127
52 | TCGGACAA | -0.0183
53 | TTAGATAA | -0.0353
54 | CGTGCATA | -0.188
55 | TATACTCA | -0.0337
56 | ACGAACCC | 0.0176
57 | CCGAAGAA | -0.154
58 | ATAGGAAA | -0.0777
59 | AGTCCTTC | -0.24
60 | GTGAGACA | -0.135
61 | ATCCTATC | -0.1
62 | GCCAAACC | -0.314
63 | AGTCAGTA | -0.128
64 | GCTCCTCA | -0.186
65 | ATAATTTC | 0.087
66 | CGAGCGGC | -0.0893
67 | CAAAGCAA | -0.00273
68 | CCCATCCA | 0.0935
69 | CGATGCCG | 0.145
70 | ACCCCAAT | 0.00286
71 | GAGCTAAC | -0.217
72 | AGTCAGTC | -0.229
73 | AATTCCGG | 0.28
74 | ACTCAACC | -0.0901
75 | GCCGGCCA | 0.007

Row | Sequence | PBM E-score
76 | GTGTGAAA | -0.00747
77 | ATCGAAGG | -0.272
78 | ACGCTAAG | -0.0875
79 | GGACAGGA | 0.139
80 | ATCACGAT | 0.0992
81 | GTAGTACA | -0.201
82 | CGACCATC | -0.172
83 | CATCCACA | 0.239
84 | AGTAACTC | -0.155
85 | GTCCCACA | -0.105
86 | AACTTGAG | -0.14
87 | ATGTGCTA | -0.0108
88 | CGATTTCC | -0.0185
89 | CAGGTCAC | -0.047
90 | ACGCTTTA | -0.2
91 | TAATCTGA | -0.0766
92 | GCCGTCGC | -0.338
93 | CTATCTGA | 0.128
94 | CCCACCGA | -0.0806
95 | GGCAGATA | -0.0763
96 | AATGCTAA | 0.206
97 | GGCGATTA | -0.198
98 | AGCAAAGG | -0.135
99 | AGTGTGGG | -0.182
100 | CAGGCGAC | -0.0539

Row | Sequence | PBM E-score
101 | GGTTAAGA | -0.155
102 | ACGCAGAG | -0.141
103 | AGTAAGAC | -0.0016
104 | GTACGAGA | -0.0556
105 | TCAGATCA | -0.238
106 | ACATGACC | -0.0244
107 | GGTGAAAC | -0.0576
108 | ATTTCGAA | 0.117
109 | CTTGTCCC | 0.00234
110 | CTTTTATC | 0.116
111 | GAAACTCC | -0.145
112 | CAGCCATG | -0.123
113 | CGTAACGC | -0.0795
114 | CCCGCTTA | 0.161
115 | GCAGCTCC | 0.115
116 | AGGTCAAG | -0.046
117 | CAAGGGTC | -0.13
118 | GGCTCTAA | 0.0892
119 | AGCAAATA | 0.0314
120 | AAGCTATA | -0.0637
121 | CGAAATAC | 0.0793
122 | GTTGCGTA | 0.157
123 | GCTAGCTA | -0.225
124 | CGAGGTGC | 0.0833
125 | AACGGAGT | 0.0165

Row | Sequence | PBM E-score
126 | ACGTAAGC | -0.142
127 | ATCTCGTA | 0.102
128 | TACTAGAA | 0.235
129 | GGTTAGAA | -0.151
130 | CATGCACC | -0.181
131 | CTCGAGTC | -0.0326
132 | GAGCCCAA | 0.119
133 | ATTATATC | 0.0964
134 | ATGGAGAC | 0.145
135 | CCAGATAG | 0.128
136 | AAAGTTAT | 0.187
137 | CGGTATTC | 0.152
138 | AAGATTGC | 0.0695
139 | CTGCGTGA | 0.157
140 | GGGTTGCA | -0.0951
141 | GGTATGAA | -0.0866
142 | AGAACATA | 0.0279
143 | ACTTCAGG | -0.0899
144 | CATACTGG | 0.209
145 | GTTCTGTA | 0.0093
146 | ATACGAGC | 0.0308
147 | AGCCGCCG | 0.167
148 | ATACTGAA | 0.00831
149 | AACACCTG | -0.252
150 | AAGGAACG | -0.0671

Row | Sequence | PBM E-score
151 | ATCATACG | -0.128
152 | ACGTGCGC | -0.142
153 | TAAAAAGA | 0.208
154 | GCCCTATA | 0.0309
155 | ATCCGGCC | -0.0916
156 | CTTGACAC | -0.0389
157 | CATGCTGA | -0.229
158 | TTCCCAAA | 0.255
159 | CAACGCCA | -0.0342
160 | GAGTTAAC | -0.13
161 | CCAGGCGC | 0.144
162 | CGTGATTA | -0.0287
163 | AGGCTATG | -0.126
164 | CAGTGCGC | -0.0696
165 | ATGTGTAA | -0.0513
166 | GCTCGTCC | -0.13
167 | GAACATCA | -0.138
168 | ACGACGAC | -0.087
169 | CAGCTGGC | 0.0948
170 | CCAATGGA | 0.0436
171 | GAAGCATC | 0.217
172 | CGTTGACC | -0.0635
